In ChEMBL document CHEMBL4888484, “Replenishing the malaria drug discovery pipeline: Screening and hit evaluation of the MMV Hit Generation Library 1 (HGL1) against asexual blood stage Plasmodium falciparum ,using a nano luciferase reporter read-out” (2022):
Among all 150,000 compounds or so, about 540 (0.36%) showed an effect of 50% or more. The list shows a part of the results.

What follows are molecules tested on Plasmodium falciparum (assay: Primary screen in NF54 nanoGlo assay, in single point, at 2uM, 72h; a lower Z score goes with more inhibition). Details: timepoint 72 hour.
Format: functional, Erythrocyte

| Compound | % Inhibition | Z score |
| --- | --- | --- |
| CC(NCc1cc[nH]n1)C(C)n1cccn1 (stereo not given) | -11% | 1.11 |
| O=C(c1ccc2nc[nH]c2n1)N1CCN[C@H](c2cccc(Cl)c2)C1 | -7% | 0.85 |
| Cc1noc(-c2cc(S(=O)(=O)Nc3cccc(Cl)c3C)c(C)s2)c1C | -12% | 1.16 |
| CNC(=O)CCOc1ccc(C)cc1C | 2% | -0.3 |
| c1cnn(-c2cncc(NCCC3CC4CCC3C4)n2)c1 (stereo not given) | -13% | 1.34 |
| O=C(Cc1ccccc1Cl)Nc1ccc(NC(=O)c2ccco2)cc1 | 5% | -0.6 |
| COCCN(C)C(=O)c1cnc(N(C)C)nc1[C@H]1CCN(S(C)(=O)=O)C1 | -7% | 0.77 |
| CC(C)n1nccc1C(=O)N1C[C@H]2CC[C@@H](C1)[C@H]2O | 1% | -0.11 |
| Cc1ncsc1CCC(=O)N1C[C@@H]2CC[C@H]1CN(Cc1ccccn1)C2 | -3% | 0.41 |
| Nc1nc(Cc2ccc(Br)cc2)cs1 | -8% | 0.76 |
| Cc1ccc(-n2cccn2)cc1S(=O)(=O)NCCN1CCCC[C@@H]1CO | -2% | 0.4 |
| C[C@@]1(NC(=O)Cn2nc(C(F)(F)F)c3c2CCOC3)CC=CCC1 | 5% | -1 |
| CC(NC(=O)C1CCOC1)C(O)c1c(F)cccc1Cl (stereo not given) | -1% | 0.07 |
| c1ccc(-n2ncc3c(NC4CCN(C5CC5)CC4)ncnc32)cc1 | 5% | -0.76 |
| Cc1n[nH]c(CN2C[C@H](c3ccccc3)C(C)(C)C2)n1 | -10% | 1.95 |
| O=C(Nc1ccc2nccnc2c1)c1cccc(CN2CCC[C@H](O)C2)c1 | -18% | 1.64 |
| CCS(=O)(=O)C1CN(C(=O)C(C)(C)c2cccc(Cl)c2)C1 | -1% | 0.08 |
| CC1CCC(NS(=O)(=O)c2ccc3c(c2)NC(=O)CO3)CC1 (stereo not given) | -1% | 0.19 |
| O=C(NCC1CC1)[C@@]1(CCO)CCN(c2ncccn2)C1 | -6% | 1.2 |
| CS(=O)(=O)[C@@H](Cc1ccccc1)c1nc(-c2ccccn2)no1 | -6% | 0.64 |
| Cc1cc(C(=O)NCc2nc3ccccc3s2)no1 | 2% | -0.32 |
| CC(C)OCC(O)CN(CC(=O)N1CCc2sccc2C1COc1ccc(F)cc1)CC1CC1 (stereo not given) | -30% | 2.89 |

| Compound | % Inhibition | Z score |
| --- | --- | --- |
| O=C(CCc1cccnc1)N[C@H]1CN(C(=O)c2ccc(F)cc2)C[C@@H]1C1CC1 | -1% | 0.14 |
| O=C(NCC1CC12CCCc1ccccc12)C1CCCc2[nH]ncc21 (stereo not given) | -6% | 0.8 |
| COCC1(CNc2ncnc3[nH]ccc23)CCCC1 | -3% | 0.38 |
| O=C(c1ccc(C(F)(F)F)cc1)N1CC2CN(S(=O)(=O)c3ccccc3)CC(C1)O2 | -24% | 2.1 |
| COc1c(F)c(F)c(CN2CCN(C)[C@@]3(CCNC(=O)CC3)C2)c(F)c1F | -9% | 1.1 |
| Cc1cc(C(=O)N2CC[C@H](Oc3cncc(N(C)C)n3)C2)no1 | -7% | 0.82 |
| COc1ccc(OC[C@H]2CC3(CCCCC3)CN2C(=O)c2cnccn2)cc1 | -20% | 3.4 |
| CCOC(=O)N1CCC(NCc2c(C(=O)O)c(C)n(Cc3cccc(Cl)c3)c2C)CC1 | -7% | 1.3 |
| CCN(CCC(=O)OC)S(=O)(=O)c1cccc2ccncc12 | -1% | 0.23 |
| COCc1noc(CN2CCN(c3ccncc3)C[C@@H](O)C2)n1 | -7% | 0.8 |
| Cc1cccc(CN(CCc2c[nH]c3ccccc23)Cc2nc(C(=O)NC[C@H]3CCCO3)co2)c1 | -2% | 0.36 |
| COc1ccccc1CCNC(N)=NC1CCCC1 | -5% | 1.02 |
| CC1CCc2sc(NC(=O)c3ncn(C)n3)c(C#N)c2C1C (stereo not given) | -6% | 1.05 |
| CCc1nnc(CNC(=O)c2cc(C(C)C)n3ncnc3n2)s1 | 7% | -1.03 |
| CCCCc1nn(CC(=O)N[C@@H]2COC3(CCCC3)C2)c(=O)n1CC | 1% | -0.27 |
| CCn1cc(S(=O)(=O)N2CC(Nc3ccccc3)C2)cn1 | 2% | -0.29 |
| O=C(Nc1cn[nH]c1)[C@H]1CCCN(C(=O)N2CCc3sccc3C2)C1 | -22% | 3.43 |
| COc1c(O)cnn(C2CCCCC2)c1=O | -6% | 1.19 |
| CCOc1ncccc1Cn1cc(-c2cc3c(cc2C)OCO3)nn1 | -5% | 0.95 |
| Cc1cnc(NCCNC(=O)OCc2ccccc2)nc1 | -4% | 0.49 |
| COc1ccccc1-c1cc(-c2ccccc2OC)n(-c2nc(-c3ccc(Cl)cc3)cs2)n1 | 33% | -3.73 |
| Cc1ccc(CCN(CC#N)S(=O)(=O)N(C)C)cc1 | -1% | 0.19 |

| Compound | % Inhibition | Z score |
| --- | --- | --- |
| CC(C)NC(=O)Cc1noc([C@H]2CCCOCC2)n1 | -2% | 0.39 |
| O=C(C[C@@H]1CCN2C[C@@H]1/C=C/COc1ccc(Br)cc1CNCC2=O)NCc1ccncc1 | 0% | -0.04 |
| COc1ccccc1C1CN2C(=O)N(c3ccc(S(=O)(=O)c4ccc(C)cc4)cc3)C(=O)[C@]2(C)c2[nH]c3ccccc3c21 (stereo not given in full) | -12% | 1.04 |
| Cc1cc(N2CCCO[C@@H](C)C2)nc(-c2cccs2)n1 | 1% | -0.05 |
| CCCC1(CCC)NC(=O)N(Cc2cn3cc(Cl)ccc3n2)C1=O | -11% | 1.1 |
| Cc1ccc(Cn2c(=O)c3sccc3n(CC(=O)Nc3nc4ccccc4s3)c2=O)cc1C | -8% | 0.92 |
| O=C(c1cn(Cc2cccs2)nn1)N1CCc2ccc(F)cc2C1 | -14% | 2.67 |
| COc1cccc([C@H]2CC(O)=Nc3c2ncn3-c2cccnc2)c1OC(C)C | 28% | -3.13 |
| C/C=C(\C)CN1CCC[C@H](CNC(=O)C2CCOCC2)C1 | -11% | 2.09 |
| CC(C)c1ccc(-n2nc(C(=O)NC3CC3)c(=O)n(Cc3cccc(C(F)(F)F)c3)c2=O)cc1 | -6% | 0.75 |
| Clc1cccc(-c2ccc(CNC3CCCCC3)o2)c1 | -9% | 1.31 |
| Cc1cccc(NCC(=O)Nc2nc(-c3ccc(Cl)cc3)cc(-c3ccc(Cl)cc3)n2)c1C | -10% | 1.6 |
| CCOCCC(=O)Nc1ccc2c(c1)C(C)(C)CC2(C)C | -8% | 1.42 |
| CN(c1nccn2c(=O)n(CC(=O)Nc3ccccc3F)nc12)C1CCCCC1 | -13% | 1.29 |
| O=C1CCCC1C1CCCN1C(=O)CCc1ccccn1 (stereo not given) | 9% | -1.22 |
| CCC1(CNC(=O)Nc2ccncc2F)CCC1 | 2% | -0.34 |
| CC1CC1C(=O)NCCC(=O)NCc1nc(-c2ccncc2)no1 (stereo not given) | -3% | 0.51 |
| C[C@H]1CCCCN1C(=O)CN1C(=O)COc2ccc(Cl)cc21 | -6% | 0.99 |
| CC1=C(C)C[C@@H](C(=O)NS(=O)(=O)CC(F)(F)F)CC1 | -5% | 0.91 |
| O=C(O)C1(O)CCN(Cc2cc(Cl)ccc2OCC2CC2)CC1 | -4% | 0.54 |
| Cc1ccc(CNS(=O)(=O)c2ccc(-c3nnc(C4CC4)o3)s2)cc1 | -6% | 1.2 |
| O=c1ccn(-c2ccccn2)n1CC[C@H]1CCCO1 | 2% | -0.42 |

| Compound | % Inhibition | Z score |
| --- | --- | --- |
| CN(C)c1ncccc1O[C@H]1CCN(S(=O)(=O)N2CCC2)C1 | -2% | 0.38 |
| CC[C@H](OC1CCCC1)C(=O)N1CCC2(C1)OCCO2 | -2% | 0.27 |
| O=C(Nc1cccc(F)c1)c1cc2c(s1)CCCCC2 | -12% | 1.08 |
| COc1ccccc1C(C#N)NC(=O)C(C)N1CCCCCC1 (stereo not given) | 1% | -0.24 |
| CC(=O)NCCN(Cc1ccccc1)C(=O)c1cc2ccccc2n1C | 28% | -3.17 |
| CCOC(=O)[C@H]1CCCN(C(=O)c2nn(-c3ccc(C)c(C)c3)c(=O)n(Cc3cccc(C)c3)c2=O)C1 | -10% | 1.2 |
| CN1CCCCc2c1nc1ccccc1c2O | -19% | 2.5 |
| Cc1cncc(CNC(=O)[C@@H]2Cc3ccccc3O[C@H]2C(F)F)c1 | -4% | 0.52 |
| CCN1C(=O)N(c2nc3ccccc3s2)C(=O)[C@@H]1Cc1ccccc1 | -7% | 0.88 |
| CC(C)CNC(=O)CCN(c1nc(C2CC2)nc2cc(Cl)ccc12)C(C)C | -6% | 1.11 |
| CC(C)[C@H]1OCC[C@@H]1CNC(=O)CCn1ccnn1 | -9% | 1.87 |
| COc1ccc(-c2cn(-c3ccc(OC)cc3)c(NC(=O)CN(C[C@H]3CCCO3)C(=O)c3ccc(C)cc3)n2)cc1 | -7% | 1.1 |
| OCCN(Cc1nsc2ccccc12)C1CCC1 | -14% | 1.59 |
| COc1ccc(Cl)cc1N1CCC(NC(=O)NCC2CCOC2(C)C)C1 (stereo not given) | -6% | 0.62 |
| Cc1nn(C)cc1C(=O)NC[C@H]1CCCN(C(=O)OCc2ccccc2)C1 | -12% | 1.51 |
| CC(=O)N(C)CC(=O)NCc1ccc(Br)cc1Cl | -14% | 1.25 |
| c1nc(C2CC2)oc1-c1cn2c(n1)CCC2 | 2% | -0.3 |
| O=C(NC1CCN(c2nc3ccccc3o2)CC1)c1ccccc1 | -45% | 5.33 |
| CC(C)(C)c1cnc(CN[C@@H]2CCCC[C@H]2S(C)(=O)=O)s1 | -7% | 0.69 |
